In the supplement of paper PMC12217912:
This is one part of the list. The full chains were built here from the parent and the listed change. Inactive controls read about 0.05.

B1: TEV protease; numbered along this chain (parent)
chain: MGESLFKGPRDYNPISSSICHLTNESDGHTTSLYGIGFGPFIITNKHLFRRNNGTLVVQSLHGVFKVKDTTTLQQHLVDGRDMIIIRMPKDFPPFPQKLKFREPQREERICLVTTNFQTKSMSSMVSDTSCTFPSGDGIFWKHWIQTKDGQCGSPLVSTRDGFIVGIHSASNFTNTNNYFTSVPKNFMELLTNQEAQQWVSGWRLNADSVLWGGHKVFMVKPEEPFQPVKEATQL

Variants of: B1
Assay: raw area under fraction-flipped curve 0-4 h after induction (AUC4h, not background-subtracted), DNA-recorder readout of cleavage of the substrate (dimensionless); higher = more cleavage of the substrate by the protease variant
Details: temperature: 34 °C; time window: 0-4 h after rhamnose induction
Experimental: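 In vivo DNA recorder in E. coli TOP10(DE3) ΔrhaA at 34 °C. Each TEVp single-site mutant (parent TEVp 0) is paired with a single-site variant of the 7-mer TEVs (canonical ENLYFQ|S). The substrate sits between flexible linkers in a Bxb1-sfGFP-TEVs-SsrA fusion, so cleavage stabilises Bxb1 and speeds flipping of a recombination array, read by NGS. The value is the raw area under the fraction-flipped curve over 0-4 h after rhamnose induction (AUC4h), with ≥20 reads per time point. It is not background-subtracted; inactive controls average about 0.047.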
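Further: Bxb1 expression induced with 0.2% (w/v) L-rhamnose at OD600 near 0.5, cultures sampled hourly, flipped fraction per protease–substrate barcode pair counted by paired-end Illumina sequencing.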

Row | Variant | area with substrate ENLAFQS | area with substrate ENLDFQS | area with substrate ENLEFQS | area with substrate ENLFFQS | area with substrate ENLGFQS | area with substrate ENLHFQS | area with substrate ENLKFQS | area with substrate ENLMFQS | area with substrate ENLNFQS | area with substrate ENLPFQS | area with substrate ENLQFQS | area with substrate ENLSFQS | area with substrate ENLVFQS | area with substrate ENLWFQS | area with substrate ENLCFQS | area with substrate ENLLFQS | area with substrate ENLRFQS | area with substrate ENLIFQS
1 | MGESLFKGPRDYNPISSSICHLTNESDGHTTSLYGIGFGPFIITNKHLFRRNNCTLVVQSLHGVFKVKDTTTLQQHLVDGRDMIIIRMPKDFPPFPQKLKFREPQREERICLVTTNFQTKSMSSMVSDTSCTFPSGDGIFWKHWIQTKDGQCGSPLVSTRDGFIVGIHSASNFTNTNNYFTSVPKNFMELLTNQEAQQWVSGWRLNADSVLWGGHKVFMVKPEEPFQPVKEATQL [G54C] | 0.0336 | 0.0633 | 0.0429 | 0.0693 | 0.0683 | 0.0706 | 0.0552 | 0.0733 | 0.0545 | 0.0562 | 0.059 | 0.0593 | 0.0725 | 0.0528 | – | – | – | –
2 | MGESLFKGPRDYNPISSSICHLTNESDGHTTSLYGIGFGPFIITNKHLFRRNNGTLVVQSLHGVFKVKDTTTLQQHLVDGRDMIIIRMPKDFPPFPQNLKFREPQREERICLVTTNFQTKSMSSMVSDTSCTFPSGDGIFWKHWIQTKDGQCGSPLVSTRDGFIVGIHSASNFTNTNNYFTSVPKNFMELLTNQEAQQWVSGWRLNADSVLWGGHKVFMVKPEEPFQPVKEATQL [K98N] | 0.0473 | 0.0632 | 0.0593 | 0.0792 | – | 0.068 | 0.0692 | – | 0.0778 | 0.0594 | 0.0661 | 0.0804 | 0.0903 | 0.0803 | 0.0702 | 0.0868 | 0.0754 | –
3 | MGESLFKGPRDYNPISSSICHLTNESDGHTTSLYGIGFGPFIITNKHLFRRNNGTLVVQSLHGVFKVKDTTTLQQHLVDGRDMIIIRMPKDFPPFPQKLKFRTPQREERICLVTTNFQTKSMSSMVSDTSCTFPSGDGIFWKHWIQTKDGQCGSPLVSTRDGFIVGIHSASNFTNTNNYFTSVPKNFMELLTNQEAQQWVSGWRLNADSVLWGGHKVFMVKPEEPFQPVKEATQL [E103T] | 0.0767 | 0.0609 | – | 0.0681 | – | 0.0637 | 0.0746 | 0.0801 | 0.0661 | 0.0601 | – | – | – | – | 0.0554 | – | 0.0885 | –
4 | MGESLFKGPRDYNPISSSICHLTNESDGITTSLYGIGFGPFIITNKHLFRRNNGTLVVQSLHGVFKVKDTTTLQQHLVDGRDMIIIRMPKDFPPFPQKLKFREPQREERICLVTTNFQTKSMSSMVSDTSCTFPSGDGIFWKHWIQTKDGQCGSPLVSTRDGFIVGIHSASNFTNTNNYFTSVPKNFMELLTNQEAQQWVSGWRLNADSVLWGGHKVFMVKPEEPFQPVKEATQL [H29I] | 0.0585 | – | 0.0737 | – | – | – | 0.0645 | – | 0.0613 | – | – | 0.0563 | 0.0821 | 0.0695 | – | 0.0831 | 0.07 | 0.0846
5 | MGESLFKGPRDYNPISSSICHLTNESDGHTTSLYGIGFGPFIITNKHLFRRNNGTLVVQCLHGVFKVKDTTTLQQHLVDGRDMIIIRMPKDFPPFPQKLKFREPQREERICLVTTNFQTKSMSSMVSDTSCTFPSGDGIFWKHWIQTKDGQCGSPLVSTRDGFIVGIHSASNFTNTNNYFTSVPKNFMELLTNQEAQQWVSGWRLNADSVLWGGHKVFMVKPEEPFQPVKEATQL [S60C] | 0.0725 | 0.0625 | 0.0661 | 0.0804 | 0.0747 | 0.0588 | 0.0739 | 0.0879 | 0.0584 | 0.0678 | 0.0721 | 0.0731 | 0.0637 | 0.0713 | 0.0646 | 0.0585 | 0.064 | 0.0905
6 | MGEILFKGPRDYNPISSSICHLTNESDGHTTSLYGIGFGPFIITNKHLFRRNNGTLVVQSLHGVFKVKDTTTLQQHLVDGRDMIIIRMPKDFPPFPQKLKFREPQREERICLVTTNFQTKSMSSMVSDTSCTFPSGDGIFWKHWIQTKDGQCGSPLVSTRDGFIVGIHSASNFTNTNNYFTSVPKNFMELLTNQEAQQWVSGWRLNADSVLWGGHKVFMVKPEEPFQPVKEATQL [S4I] | 0.0816 | 0.0479 | 0.0569 | – | 0.0564 | 0.0662 | 0.0941 | 0.0887 | 0.0439 | 0.0524 | 0.0817 | 0.0639 | – | 0.0453 | 0.0876 | 0.0893 | – | –
7 | MGESLFKGPRDYNPISSSICHLTNESDGHTTSLYGIGFGPFIITNKHLFRRNNGTLVVQSLHGVFKVKDTTTLQQHLVDGRDMIIIRMPKDFPPFPQKLKFREPQREERICLVTTNFQTKSMSSMVSDTSCTFPSGDGIFWKHWIQTKDGQCGSPLVSTRDGFIVGIHSASNFTNTNNYFTSVPKNFMELLTNQEWQQWVSGWRLNADSVLWGGHKVFMVKPEEPFQPVKEATQL [A196W] | 0.0597 | 0.0835 | 0.073 | 0.085 | 0.0591 | – | – | – | – | 0.0433 | – | 0.062 | – | – | 0.068 | – | 0.0649 | 0.0569
8 | MGESLFKGPRDYNPISSSICHLTNESDGHTTSLYGIGFGPFIITNKHLFRRNNGTLVVQSLHGVFKVKDTTTLQQHLVDGRDMIIIRMPKDFPPFPHKLKFREPQREERICLVTTNFQTKSMSSMVSDTSCTFPSGDGIFWKHWIQTKDGQCGSPLVSTRDGFIVGIHSASNFTNTNNYFTSVPKNFMELLTNQEAQQWVSGWRLNADSVLWGGHKVFMVKPEEPFQPVKEATQL [Q97H] | 0.0574 | 0.0461 | 0.0499 | 0.0752 | – | – | 0.069 | – | 0.0524 | – | – | 0.0521 | – | 0.0663 | – | – | – | 0.0816
9 | MGESLFKGPRDYNPISSSICHLTNESDGHTTSLYGIGFGPFIITNKHLFRRNNGTLVVQSLHGVFKVKDTTTLQQHLVDGRDMIIIRMPKDFPPFPQKLKFREPQREERICLVTTNFQTKSMSSMVSDTVCTFPSGDGIFWKHWIQTKDGQCGSPLVSTRDGFIVGIHSASNFTNTNNYFTSVPKNFMELLTNQEAQQWVSGWRLNADSVLWGGHKVFMVKPEEPFQPVKEATQL [S130V] | 0.0632 | 0.0814 | 0.0688 | 0.129 | 0.0751 | 0.0663 | 0.0849 | – | 0.064 | 0.0643 | – | 0.0753 | – | 0.0332 | 0.0608 | – | 0.0743 | 0.092
